Measured values taken from PMC2883571, “Quercetin Targets Cysteine String Protein (CSPα) and Impairs Synaptic Transmission” (PLoS ONE, 2010).
Results are given in words; binding and its absence hold for the method and conditions named. Some results given as binding are weak or reduced against the parent protein; the word gives no strength. For some assays here: Where a sequence is shown, tags or fusion partners need not be part of it. Values belong to the binder of their own block, whether it stands above or below them.

Columns and labels:
[1] = target: T1, c-myc tagged rat CSPα_(1–198) (cysteine string protein) (rat) (UniProt P60905); experiment: SDS-resistant dimer on SDS-PAGE with Western blot; lysates of transiently transfected CAD cells, control or treated 24 h with quercetin (up to 200 µM), EGCG or other agents; 30-40 µg protein in SDS sample buffer at 37°C or 80°C; dimer at ∼72 kDa
T1 sequence (chain, both unmodified and palmitoylated (extensive fatty acylation) species seen): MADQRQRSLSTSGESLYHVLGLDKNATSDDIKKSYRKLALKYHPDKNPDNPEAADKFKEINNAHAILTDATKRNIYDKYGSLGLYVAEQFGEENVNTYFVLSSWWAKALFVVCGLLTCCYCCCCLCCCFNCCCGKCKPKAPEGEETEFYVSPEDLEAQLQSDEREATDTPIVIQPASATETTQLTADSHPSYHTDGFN

[2] = target: purified recombinant rat CSPα (rat) (UniProt P60905); experiment: SDS-resistant dimer on SDS-PAGE with Western blot; equal volumes of purified recombinant rat CSPα treated with indicated concentrations of quercetin for 24 hrs; both purified
[3] = target: native CSPα of rat cortical neurons and rat brain (rat (endogenous in rat cortical neurons and rat brain)) (UniProt P60905); experiment: SDS-resistant dimer on SDS-PAGE with Western blot; crude rat brain homogenate with quercetin; data not shown
[4] = target: native CSPα of rat cortical neurons and rat brain (rat (endogenous in rat cortical neurons and rat brain)) (UniProt P60905); experiment: SDS-resistant dimer on SDS-PAGE with Western blot; lysates of cultured rat cortical neurons treated with quercetin (20-100 µM) or DMSO for 24 h
[5] = target: native CSPα of rat cortical neurons and rat brain (rat (endogenous in rat cortical neurons and rat brain)) (UniProt P60905); experiment: SDS-resistant dimer on SDS-PAGE with Western blot; 25 µg unfractionated homogenate of regions of adult rat brain, monoclonal anti-CSPα antibody
[6] = target: CSPα_(1–82) truncation construct (J domain only) (rat) (UniProt P60905); experiment: SDS-resistant dimer on SDS-PAGE with Western blot; lysates of transiently transfected CAD cells, control or treated 24 h with quercetin (up to 200 µM), EGCG or other agents; 30-40 µg protein in SDS sample buffer at 37°C or 80°C; dimer at ∼72 kDa
[7] = target: T2, Gαs (mouse (endogenous in CAD cells)), P63094; experiment: as above; details: remark: other sources report otherwise
T2 chain: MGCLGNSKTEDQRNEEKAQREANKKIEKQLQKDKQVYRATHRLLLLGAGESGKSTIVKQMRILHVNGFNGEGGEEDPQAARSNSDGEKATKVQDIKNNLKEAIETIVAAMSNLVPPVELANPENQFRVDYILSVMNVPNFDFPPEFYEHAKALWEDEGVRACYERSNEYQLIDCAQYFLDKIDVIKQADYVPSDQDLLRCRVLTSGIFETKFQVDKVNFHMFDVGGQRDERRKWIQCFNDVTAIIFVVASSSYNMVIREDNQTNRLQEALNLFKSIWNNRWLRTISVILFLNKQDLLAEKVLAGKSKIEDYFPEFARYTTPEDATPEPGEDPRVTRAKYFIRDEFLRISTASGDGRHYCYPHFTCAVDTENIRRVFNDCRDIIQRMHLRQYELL

[8] = substrate: CSPα deletion construct lacking the cysteine string region amino acids 113–136 (rat) (UniProt P60905); experiment: as above

B4: CSPα_(1–82) truncation construct (J domain only) (domain or fragment, UniProt P60905 1-82)
chain: MADQRQRSLSTSGESLYHVLGLDKNATSDDIKKSYRKLALKYHPDKNPDNPEAADKFKEINNAHAILTDATKRNIYDKYGSL
binding [6]: no binding

B5: Gαs, P63094 1-394 (protein)
chain: MGCLGNSKTEDQRNEEKAQREANKKIEKQLQKDKQVYRATHRLLLLGAGESGKSTIVKQMRILHVNGFNGEGGEEDPQAARSNSDGEKATKVQDIKNNLKEAIETIVAAMSNLVPPVELANPENQFRVDYILSVMNVPNFDFPPEFYEHAKALWEDEGVRACYERSNEYQLIDCAQYFLDKIDVIKQADYVPSDQDLLRCRVLTSGIFETKFQVDKVNFHMFDVGGQRDERRKWIQCFNDVTAIIFVVASSSYNMVIREDNQTNRLQEALNLFKSIWNNRWLRTISVILFLNKQDLLAEKVLAGKSKIEDYFPEFARYTTPEDATPEPGEDPRVTRAKYFIRDEFLRISTASGDGRHYCYPHFTCAVDTENIRRVFNDCRDIIQRMHLRQYELL
binding [7]: no binding

B6: CSPα deletion construct lacking the cysteine string region amino acids 113–136 (protein, UniProt P60905)
chain: MADQRQRSLSTSGESLYHVLGLDKNATSDDIKKSYRKLALKYHPDKNPDNPEAADKFKEINNAHAILTDATKRNIYDKYGSLGLYVAEQFGEENVNTYFVLSSWWAKALFVVKPKAPEGEETEFYVSPEDLEAQLQSDEREATDTPIVIQPASATETTQLTADSHPSYHTDGFN
binding [8]: no binding

Now from value to binder:

binding [1]: binds
B1: c-myc tagged rat CSPα_(1–198) (cysteine string protein) (protein, UniProt P60905 1-198)
chain: MADQRQRSLSTSGESLYHVLGLDKNATSDDIKKSYRKLALKYHPDKNPDNPEAADKFKEINNAHAILTDATKRNIYDKYGSLGLYVAEQFGEENVNTYFVLSSWWAKALFVVCGLLTCCYCCCCLCCCFNCCCGKCKPKAPEGEETEFYVSPEDLEAQLQSDEREATDTPIVIQPASATETTQLTADSHPSYHTDGFN
modifications: both unmodified and palmitoylated (extensive fatty acylation) species seen

binding [2]: binds
B2: purified recombinant rat CSPα (protein, UniProt P60905 1-198)
chain: MADQRQRSLSTSGESLYHVLGLDKNATSDDIKKSYRKLALKYHPDKNPDNPEAADKFKEINNAHAILTDATKRNIYDKYGSLGLYVAEQFGEENVNTYFVLSSWWAKALFVVCGLLTCCYCCCCLCCCFNCCCGKCKPKAPEGEETEFYVSPEDLEAQLQSDEREATDTPIVIQPASATETTQLTADSHPSYHTDGFN

binding [3]: binds
binding [4]: binds
binding [5]: binds
B3: native CSPα of rat cortical neurons and rat brain (protein, UniProt P60905 1-198)
chain: MADQRQRSLSTSGESLYHVLGLDKNATSDDIKKSYRKLALKYHPDKNPDNPEAADKFKEINNAHAILTDATKRNIYDKYGSLGLYVAEQFGEENVNTYFVLSSWWAKALFVVCGLLTCCYCCCCLCCCFNCCCGKCKPKAPEGEETEFYVSPEDLEAQLQSDEREATDTPIVIQPASATETTQLTADSHPSYHTDGFN
modifications: palmitoylated monomer at ∼34 kDa seen
